# Measured values as given in the antibiotic and cytotoxicity screens of Wong et al. (2023).
# This is one part of the list.
# Tested on: HSkMC (human skeletal muscle cells)
# Experiment: cytotoxicity call (relative viability < 0.9)
# Details: 10 µM
row,SMILES,cytotoxicity call
1,C[C@H](CO)N1C[C@H](C)[C@H](CN(C)C(=O)Nc2ccc(C(F)(F)F)cc2)Oc2ccc(NC(=O)Cn3cnnn3)cc2C1=O,inactive
2,CNC(=O)C[C@H]1CC[C@H]2[C@@H](COC[C@H](O)CN2C(=O)Nc2ccc3c(c2)OCO3)O1,inactive
3,COC(=O)c1c(CC[C@@H](CO)NC(=O)N[C@@H](C)Cn2cc(-c3ccccn3)nn2)oc(C(C)=O)c1C(=O)OC,inactive
4,C[C@@H]1CN([C@H](C)CO)C(=O)Cc2cc(NC(=O)CCN3CCOCC3)ccc2O[C@@H]1CN(C)S(=O)(=O)c1ccccc1,inactive
5,C[C@@H]1CCCCO[C@@H](CN(C)Cc2ccncc2)[C@@H](C)CN([C@H](C)CO)C(=O)c2cc(NC(=O)c3ccccc3)ccc2O1,inactive
6,C[C@@H]1CN([C@@H](C)CO)C(=O)Cc2cc(NS(C)(=O)=O)ccc2O[C@@H]1CN(C)S(=O)(=O)c1ccc(Cl)cc1,inactive
7,C[C@H](CO)N1C[C@H](C)[C@@H](CN(C)CC2CC2)Oc2ccc(NC(=O)CCN3CCOCC3)cc2CC1=O,inactive
8,Cc1noc(C)c1S(=O)(=O)Nc1ccc2c(c1)CC(=O)N([C@@H](C)CO)C[C@H](C)[C@@H](CN(C)Cc1ccc3c(c1)OCO3)O2,inactive
9,O=C(Nc1ccccc1)c1cc2c(c(-c3cccc(-c4ccncc4)c3)n1)[C@@H](CCO)N(CC1CCOCC1)C2,inactive
10,CC(=O)NC(CCC(N)=O)C(=O)O (stereo not given),inactive
11,C[C@@H]1CN([C@@H](C)CO)C(=O)c2cc(NS(=O)(=O)c3cccs3)ccc2O[C@@H](C)CCCCO[C@H]1CN(C)C(=O)Nc1ccc(F)cc1,inactive
12,C[C@@H]1CCCCO[C@H](CN(C)Cc2ccc(C(F)(F)F)cc2)[C@H](C)CN([C@H](C)CO)C(=O)c2cc(NS(=O)(=O)c3ccc(Cl)cc3)ccc2O1,inactive
13,C[C@H]1CN([C@@H](C)CO)C(=O)c2cccc(NS(=O)(=O)c3ccccc3)c2O[C@H]1CN(C)Cc1ccncc1,inactive
14,C[C@@H]1CN([C@@H](C)CO)C(=O)CCCn2nncc2CO[C@@H]1CN(C)C(=O)Nc1ccccc1C(F)(F)F,inactive
15,CC(=O)N[C@H]1C(=O)Nc2ccc(F)cc21,inactive
16,C[C@@H]1CN([C@@H](C)CO)C(=O)c2cc(NC(=O)C3CCCCC3)ccc2O[C@@H]1CN(C)C(=O)Nc1cccc2ccccc12,inactive
17,C[C@@H]1CN([C@@H](C)CO)C(=O)c2cc(NS(=O)(=O)c3ccccc3)ccc2O[C@H]1CN(C)S(C)(=O)=O,inactive
18,Cc1ccc(S(=O)(=O)N(C)C[C@H]2OCCCC[C@H](C)Oc3ccc(NC(=O)C4CCCCC4)cc3C(=O)N([C@H](C)CO)C[C@@H]2C)cc1,inactive
19,C[C@H](CO)N1C[C@H](C)[C@@H](CN(C)C(=O)Nc2cccc3ccccc23)Oc2ccc(NC(=O)NC3CCCCC3)cc2CC1=O,inactive
20,C[C@H](CO)N1C[C@H](C)[C@@H](CN(C)Cc2ccc(C(=O)Nc3ccccc3N)cc2)Oc2c(NC(=O)Nc3ccc(F)cc3)cccc2C1=O,inactive
21,C[C@H](CO)N1C[C@H](C)[C@H](CN(C)S(=O)(=O)c2ccccc2)Oc2c(NS(C)(=O)=O)cccc2C1=O,inactive
22,COc1ccc(S(=O)(=O)Nc2ccc3c(c2)CC(=O)N([C@H](C)CO)C[C@H](C)[C@H](CN(C)S(C)(=O)=O)O3)cc1,inactive
23,Cc1ccc(S(=O)(=O)N(C)C[C@@H]2OCCCC[C@H](C)Oc3ccc(NC(=O)Nc4ccc(F)cc4)cc3C(=O)N([C@H](C)CO)C[C@@H]2C)cc1,inactive
24,C[C@@H]1CN([C@H](C)CO)C(=O)c2cc(NS(C)(=O)=O)ccc2O[C@H]1CN(C)S(=O)(=O)c1ccccc1,inactive
25,CCn1c(C)cc(C)c(C(=O)N2C[C@H]3C(=O)NC[C@@]3(C(=O)O)C2)c1=O,inactive
26,COCCn1c(=NN)[nH]c2ccsc2c1=O,inactive
27,C[C@H]1CN([C@@H](C)CO)C(=O)CCCn2nncc2CO[C@H]1CN(C)C(=O)Nc1ccc(N2CCN(C)CC2)cc1,inactive
28,C[C@@H]1CN([C@@H](C)CO)C(=O)c2c(c3ccccc3n2C)-c2ccccc2CO[C@@H]1CN(C)C(=O)Nc1ccccc1,inactive
29,CS(=O)(=O)Nc1ccc2c(c1)[C@H]1C[C@H](CC(=O)NCC3CC3)O[C@@H](CO)[C@H]1O2,inactive
30,C[C@@H]1CN([C@@H](C)CO)S(=O)(=O)c2ccc(-c3ccc(C(=O)N(C)C)cc3)cc2O[C@@H]1CN(C)C(=O)Cc1ccccn1,inactive
